# Whole data set: some 33,000 sequences, median “E-score (-0.5 to 0.5)” near -0.012, cut for the highest 2% near 0.29. This is one part of the list.
# Target: T1, Ybr033w (UniProt P38073)
# T1 sequence: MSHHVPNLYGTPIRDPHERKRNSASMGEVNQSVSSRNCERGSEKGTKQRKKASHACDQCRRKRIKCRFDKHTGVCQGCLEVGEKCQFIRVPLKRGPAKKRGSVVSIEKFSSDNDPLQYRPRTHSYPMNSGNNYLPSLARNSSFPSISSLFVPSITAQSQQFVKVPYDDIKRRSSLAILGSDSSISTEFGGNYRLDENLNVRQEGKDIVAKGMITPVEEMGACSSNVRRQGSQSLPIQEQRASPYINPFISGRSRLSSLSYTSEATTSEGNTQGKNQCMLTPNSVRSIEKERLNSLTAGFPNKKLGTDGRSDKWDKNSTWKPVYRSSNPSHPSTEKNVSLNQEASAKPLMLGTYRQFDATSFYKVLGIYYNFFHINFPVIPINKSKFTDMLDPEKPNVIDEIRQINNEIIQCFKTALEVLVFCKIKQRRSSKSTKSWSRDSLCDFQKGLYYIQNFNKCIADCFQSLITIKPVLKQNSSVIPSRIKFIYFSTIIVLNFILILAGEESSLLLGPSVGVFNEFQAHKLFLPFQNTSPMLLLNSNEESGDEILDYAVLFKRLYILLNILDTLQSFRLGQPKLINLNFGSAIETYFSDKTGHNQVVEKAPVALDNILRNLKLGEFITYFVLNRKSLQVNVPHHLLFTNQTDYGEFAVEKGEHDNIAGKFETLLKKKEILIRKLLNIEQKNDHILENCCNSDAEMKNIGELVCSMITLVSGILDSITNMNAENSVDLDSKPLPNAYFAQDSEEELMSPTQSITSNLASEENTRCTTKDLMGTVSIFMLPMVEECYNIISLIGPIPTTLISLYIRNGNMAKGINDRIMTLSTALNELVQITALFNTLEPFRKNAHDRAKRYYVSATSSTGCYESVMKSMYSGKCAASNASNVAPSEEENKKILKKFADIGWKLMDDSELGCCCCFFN
# Assay: PBM E-score (8-mer binding enrichment) (E-score (-0.5 to 0.5)); higher = stronger / more preferred TF binding; most listed sequences are background and not binding sites
# Settings: protein concentration: 200 nM; construct: GST-full length
# Procedure, shortened: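 E-scores (a modified Wilcoxon-Mann-Whitney statistic) were assigned by the Universal PBM Analysis Suite to every ungapped eight-base word pooled with its reverse complement. The input came from universal all-10-mer Agilent arrays made double-stranded by primer extension and probed with GST-tagged yeast transcription factors at about 100-200 nM. Fluorescent anti-GST detected bound protein, and masliner normalised the scans.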
row,Sequence,PBM E-score
1,AGTGGTGC,-0.0473
2,ACCCCCTG,-0.454
3,AGGTGAGC,-0.172
4,GCCTGACC,-0.211
5,AGTGACCG,-0.192
6,ACGTCTAG,0.0964
7,CCTGGCTC,-0.174
8,GCCTAGGC,-0.287
9,ACTCACGG,-0.0114
10,CCGACGAA,0.119
11,CAGTAAGA,0.0564
12,ACCGTGGA,-0.224
13,ATGTTAAC,0.169
14,AAGCCATG,-0.247
15,ATCTACTA,0.324
16,AGTCTCAG,-0.149
17,ACTGTTTA,0.187
18,GACACCGA,-0.182
19,AGCAGCTA,0.163
20,AACCCACC,0.021
21,CACTCAGG,-0.108
22,AACATAAG,0.255
23,GATACTTA,0.135
24,CCAATCGA,-0.1
25,TGGCAGAA,0.0785

row,Sequence,PBM E-score
1,CCCTGTTC,-0.158
2,CGAATCTA,0.0941
3,GATCCCCA,-0.167
4,CAACTGGG,-0.228
5,GAGCACAC,-0.217
6,ATCTCGCG,0.225
7,CTTCCAAG,0.0645
8,GTTGCATA,0.0648
9,CAGTTAAC,-0.0541
10,AGGCATGG,-0.0824
11,ACCCATAA,-0.0263
12,GCTGCCCC,-0.367
13,AGATCGAG,0.0958
14,GCCCCCTA,-0.309
15,AGCATGCC,-0.318
16,GGAAGTCA,0.0558
17,AGTGCCTG,0.0844
18,CACGCTAA,0.0904
19,CGCCCGCA,-0.0804
20,AATGCTTA,0.0895
21,AAACGAGA,0.0255
22,GGGGTCAA,-0.0578
23,ACTTTCTC,0.0654
24,GCCCGGTA,-0.21
25,GGTTTCAA,0.0869

row,Sequence,PBM E-score
1,GTCGATCA,0.103
2,AATCTTGA,0.0862
3,ATTCGTTA,0.166
4,CGTAAATA,0.154
5,ATTGAGCG,0.0411
6,CGGACTGC,-0.101
7,AATGCATG,0.0293
8,ACACCGTC,-0.0477
9,AGCGCCCG,-0.167
10,CTTGGGAA,0.142
11,CACGGCCC,-0.238
12,CTAGTAGA,0.101
13,AATAGAAC,0.243
14,GCGTTGAA,-0.0177
15,CCGCGCCA,-0.118
16,CAGTTGAC,0.0609
17,GATGTCCC,-0.0788
18,ATTTTCGA,0.121
19,GTGGTCTA,-0.0327
20,GCCTTAGC,-0.0859
21,CCTAACCC,-0.338
22,GTCAGGAC,-0.203
23,AACTAGAA,0.0732
24,ACGATGCT,-0.133
25,CCCATTCC,-0.3

row,Sequence,PBM E-score
1,ATATGGAC,0.104
2,CTTCAACC,0.00158
3,GCAGGCCC,-0.319
4,AAGATTAG,0.219
5,AAACTCCC,-0.0496
6,CCTAAAGC,-0.0686
7,AATCGCTA,-0.0432
8,GCCCTGAA,0.0531
9,TGAACTCA,-0.0954
10,GGGAGTAC,-0.221
11,ATCCATAC,0.17
12,ACCCAACG,-0.034
13,GGGTAGAA,-0.0125
14,ATGAAATA,0.112
15,CTTTGTGC,-0.00737
16,TCCACTCA,0.116
17,ATCGAGTA,0.0423
18,AGTTATGA,0.0811
19,CCGCATTA,0.0751
20,ATACCCTC,0.107
21,AAAATAAA,0.319
22,GTTGAGGA,-0.0398
23,GTGTGCGA,-0.0715
24,CGGTCGAC,-0.162
25,CGGTTGTA,-0.189

row,Sequence,PBM E-score
1,TGATGCCA,0.0319
2,ATTCAAAA,0.266
3,CGGCGAAC,-0.147
4,AGAGTGAT,0.0159
5,GTTAATTA,0.266
6,CTTTAACA,0.222
7,ATGTCAGC,-0.0298
8,ACGGTTCT,-0.118
9,AGCCGGGA,0.00118
10,CTACTTTC,0.0597
11,ATGTTCTC,0.0345
12,AACGGACG,-0.0518
13,CGCGGCGA,-0.0533
14,TCTGAACA,0.0293
15,CTATTAGA,-0.101
16,ATGGTCTA,0.00273
17,CCAATAGG,-0.069
18,GAAACGTC,-0.0259
19,CTCGCATA,0.0348
20,ACTAGTCA,0.0224
21,AAGGGTTG,-0.0377
22,AAGTTACC,0.135
23,CTACGAAC,0.0127
24,CCGGCCCA,-0.263
25,CCCGATAC,-0.151

row,Sequence,PBM E-score
1,GTGCCAAA,-0.164
2,AAATATCA,0.252
3,ATACAGAT,0.167
4,AACTGCCT,0.126
5,CTTGTTAA,0.113
6,CGTACGAA,0.0522
7,ATCCCCTC,-0.187
8,AAACTGTC,0.0592
9,CGGGGTGC,-0.219
10,GAAGAAGA,0.0623
11,CTGCTGTA,0.072
12,GAGATGTA,0.132
13,CCTGCTTA,-0.0521
14,AAACTGCT,-0.0956
15,AGCGAAGA,-0.162
16,AAGCTCCG,0.00583
17,TCGTCAAA,0.172
18,CCCGTTAC,-0.0764
19,AAACACAG,0.156
20,CTACGGTA,0.0261
21,ACGAACTA,0.158
22,CTCTTCAA,-0.164
23,GATTTTCC,0.416
24,AAACTGAC,-0.0118
25,ACTAATAG,0.2

row,Sequence,PBM E-score
1,GTACTGTA,-0.0259
2,ATGGCGAC,-0.0981
3,TCGGTCCA,-0.146
4,CTACACAG,0.0413
5,GTAGGCAC,-0.13
6,CAAGTCGG,0.0358
7,AACGATTC,0.146
8,ACTTTCGG,-0.184
9,ACTTCAAA,0.0779
10,ACCCTTCG,-0.159
11,CAAAGTAA,0.186
12,AATTTGGA,-0.00713
13,ACCAATGC,0.038
14,CCGGAAAA,0.44
15,AGAATTGG,-0.0659
16,CGATATAA,0.123
17,CCATCCGG,-0.169
18,ACGCGCAA,0.159
19,CAAACCGC,-0.122
20,GCAGTCAC,-0.0861
21,ACCACCTG,-0.0161
22,GTGACTCA,-0.0878
23,ACAGATTG,0.0486
24,GATAAAGA,0.154
25,AATTGTTG,0.114

row,Sequence,PBM E-score
1,CACTCATA,0.182
2,CGATGCCA,-0.26
3,AAGGGCTC,-0.182
4,ATAATGTC,0.0977
5,AGTACAGG,0.0939
6,GCGAAAGC,-0.0712
7,AAAGAAGG,-0.0787
8,AGCATTTG,0.105
9,CGGCTGGC,-0.261
10,CCGTAACA,-0.0808
11,ACACGACG,-0.0483
12,ATTTGTCA,0.16
13,ATGTAAGA,0.217
14,ATGCACAT,0.0773
15,ACTTCCAA,0.135
16,ACCAGGGA,-0.238
17,CCGGGGAG,-0.227
18,AACTATGT,-0.0122
19,ACTAGAAT,0.167
20,AATCAAGT,0.128
21,CGAAAAAG,0.121
22,ACGCCCGA,-0.224
23,ACTTCCCA,0.00549
24,CCTGTAAG,-0.0311
25,GCATCAAC,0.0597

row,Sequence,PBM E-score
1,AAAATTTA,0.269
2,GTGGAAGA,0.137
3,CGACCGGA,0.00568
4,ACCGGCGG,-0.152
5,CCTTTAAG,-0.053
6,TATTGAGA,0.173
7,GTAAGTCA,0.0193
8,ACTGGCGG,-0.00828
9,CGGCCGAC,-0.0576
10,ACAGAGAA,0.0806
11,CTAGGTGC,-0.206
12,TACATCCA,0.15
13,CGCGGTAC,-0.147
14,TCATAAGA,0.114
15,ACCGAGTG,-0.115
16,TAATTTCA,0.289
17,CCTGGGCC,-0.286
18,AGGCTGCG,0.00235
19,CCAGTAAA,0.0984
